Laboratory results reported in PubChem BioAssay AID720542 (National Center for Advancing Translational Sciences (NCATS), 2013).
Hit rate of the full screen: of about 360,000 compounds, about 740 (0.21%) were called active. The inconclusive results got no clear call from the source; some entries with a clear call stand among them for comparison. Calls come from the whole dose curve; as a rule, active = well fitted inhibition curve with a large enough effect; inconclusive = small, poorly fitted or top-dose-only effect; inactive = no such curve, though single readings can be large or run the other way. Potencies of inconclusive entries are left out as doubtful fits.

Each compound was assayed on Plasmodium falciparum AMA1 (3D7) - RON2 peptide interaction (assay: qHTS for Inhibitors of AMA1-RON; Towards Development of Antimalarial Drug Lead: Primary Screen). Conditions: AlphaScreen AMA1-biotinylated RON2 peptide binding; activity change, negative = inhibition: at 58.2 µM (top of the series) unless noted.
Method in brief: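 AMA1 (3D7) with his tag at 25 nM final met compounds first, then biotinylated RON2 peptide at 25 nM; detection used donor plus acceptor beads, 10 µg/mL apiece, read by AlphaScreen after 30 min at room temperature.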
Note: nearly all actives have a fitted effect of over 45% in size.
Potency is the fitted concentration of half-maximal effect; tags give direction and shape of the fitted curve.
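Throughout, for activity change, negative = inhibition: 0% = vehicle wells and -100% = peptide control.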

SMILES	activity change, negative = inhibition	Potency
Cc1ccc(-c2cc(C(=O)N/N=C/c3c[nH]c4ccccc34)[nH]n2)cc1	inactive: 20.3%	–
Cc1ncc([N+](=O)[O-])n1CCOC(=O)c1cc(Cl)cc(Cl)c1N	–	inconclusive [inhibitor, full curve, poor fit]
CCOC(=O)CNC(=O)CSc1nc(Cc2ccccc2)nc2ccccc12	inactive: 0.823%	–
c1ccc(-c2csc(=Nc3cccnc3)n2CC2CCCO2)cc1 (stereo unspecified)	–	inconclusive [inhibitor, partial curve]
CCOc1cc(C2C(C(=O)c3ccco3)=C(O)C(=O)N2CC2CCCO2)ccc1O (stereo unspecified)	–	inconclusive [inhibitor, single point]
CN(c1ccccc1)c1ccc(/C=C(\C#N)c2nnc3n2CCCCC3)cc1[N+](=O)[O-]	–	inconclusive [inhibitor, single point]
Cc1cccc(S(=O)(=O)C(C#N)c2nc3ccccc3nc2N2CC(C)OC(C)C2)c1 (stereo unspecified)	inactive: -1.54%	–
CSCC[C@H](NC(=O)c1cccc(S(=O)(=O)N2CCCCC2)c1)c1nc2ccccc2[nH]1	inactive: -9.22%	–
Brc1cccc(CN2CCCCCC2)c1	–	inconclusive [inhibitor, partial curve]
O=C(O)C1CCCN1C(=O)Oc1ccccc1 (stereo unspecified)	inactive: -7.55%	–
CCOc1cc(NC(=O)c2cccs2)c(OCC)cc1NC(=O)CCC(=O)NCC1CCCO1 (stereo unspecified)	–	inconclusive [inhibitor, partial curve]
Cc1ccc(C(=O)Nc2nc(-c3ccco3)c(-c3ccco3)s2)o1	–	inconclusive [inhibitor, single point]
COc1cc(/C=N/NC(=O)c2c(C)nnn2-c2nonc2N)ccc1O	–	inconclusive [inhibitor, full curve, poor fit]
COc1ccc(C(C(=O)Nc2ccc3c(c2)OCO3)N(C)C(=O)Cc2c[nH]c3ccccc23)cc1 (stereo unspecified)	–	inconclusive [inhibitor, partial curve]
COc1ccc(Cc2nnc(NC(=O)Nc3ccc(C)cc3)s2)cc1OC	–	inconclusive [inhibitor, single point]
CCOc1ccc(CNCCN2CCCC2)cc1	–	inconclusive [inhibitor, partial curve]
Cc1cc(C)cc(N=c2c([N+](=O)[O-])nn(-c3ccc(Cl)cc3)n2O)c1	–	inconclusive [inhibitor, full curve]
COc1ccccc1NCCC(=O)OCC(=O)Nc1ccccc1Cl	–	inconclusive [inhibitor, partial curve]
Cc1occc1C(=O)Nc1nn[nH]n1	–	inconclusive [inhibitor, single point]
COc1cc(Cl)ccc1OC1(C)CCN(Cc2ccc(-c3ccccn3)cc2)C1 (stereo unspecified)	–	inconclusive [inhibitor, partial curve]
Cc1ccc(CON=C2CCN(c3ncc(C(F)(F)F)cc3Cl)CC2)cc1	–	inconclusive [inhibitor, full curve]
CCOC(=O)N1CCN(C2=C(NS(=O)(=O)c3ccc(C)cc3)C(=O)c3ccccc3C2=O)CC1	–	inconclusive [inhibitor, single point]

SMILES	activity change, negative = inhibition	Potency
Cc1cc(C)c(OCCCON2C(=O)CCC2=O)c(Br)c1	inactive: 7.75%	–
Cc1ccccc1C(=O)Nc1ccccc1N1CCCCC1	–	inconclusive [inhibitor, single point]
O=C1COc2ccc(C(=O)COC(=O)/C=C/c3ccc(Br)o3)cc2N1	–	inconclusive [inhibitor, partial curve]
Cc1ccc(C(c2ccc(C)o2)c2cccc([N+](=O)[O-])c2O)o1	–	inconclusive [inhibitor, partial curve]
COc1ccc2cc1Oc1ccc(cc1)C[C@H]1c3c(cc4c(c3Oc3cc5c(cc3OC)CCN(C)[C@@H]5C2)OCO4)CCN1C	–	inconclusive [inhibitor, partial curve]
N#Cc1nc(-c2ccco2)oc1N1CCc2ccccc2C1	–	inconclusive [inhibitor, partial curve]
Cc1ccccc1OCCNCC(C)O (stereo unspecified)	–	inconclusive [inhibitor, full curve, poor fit]
CCCCC[C@H](C)N1C[C@@H](COCc2ccccc2)Oc2cc(N3CC[C@@H](N(C)C)C3)ccc2S1(=O)=O	–	inconclusive [inhibitor, partial curve]
COc1ccc(CN2CCN(S(=O)(=O)c3ccc(F)cc3)CC2)c(OC)c1OC	–	inconclusive [inhibitor, partial curve]
Cc1ccnc(NC(=O)CNC(=O)c2ccc3ccccc3c2)c1	inactive: 13.8%	–
Cc1ccc(Nc2c([N+](=O)[O-])ccc3nonc23)c(C)c1	–	inconclusive [inhibitor, full curve]
CCn1c2ccccc2c2cc(NC(=O)c3cc(C)on3)ccc21	–	inconclusive [inhibitor, partial curve]
Cc1ccccc1N=C(c1ccccc1)C1C(=O)c2ccccc2C1=O	–	inconclusive [inhibitor, partial curve]
Cc1cc(-n2nc(C)cc2C)nc(NS(=O)(=O)c2ccccc2Cl)n1	–	inconclusive [inhibitor, partial curve, poor fit]
Cc1cccc(-c2cc3nc(C)cc(NCCCn4ccnc4)n3n2)c1	–	inconclusive [inhibitor, partial curve]
NS(=O)(=O)c1ccc(CCNC(=O)CSc2nc3ccsc3c(=O)n2CC2CCC(C(=O)O)CC2)cc1 (stereo unspecified)	–	inconclusive [inhibitor, partial curve, poor fit]
CCOC(=O)NC(=O)COC(=O)CCCc1nc2ccccc2s1	–	inconclusive [inhibitor, partial curve]
Cc1nc2sccn2c1-c1csc(NCc2ccccc2)n1	inactive: 5.37%	–
Cc1cccc(C)c1OCCN1CCOCC1	–	inconclusive [inhibitor, partial curve]
C=CCn1c(SCC(=O)NC2CCCC2)nc2scc(-c3ccco3)c2c1=O	–	inconclusive [inhibitor, single point]
O=C1/C(=C\c2ccc(Br)o2)Cc2ccccc21	–	inconclusive [inhibitor, partial curve]
FCCCOc1ccc(CN2CCN(c3ccccc3F)CC2)cc1	–	inconclusive [inhibitor, partial curve]

SMILES	activity change, negative = inhibition	Potency
COc1ccc(-c2cc(C3CCN(c4ccc(C(C)=O)cc4[N+](=O)[O-])CC3)[nH]n2)cc1	–	inconclusive [inhibitor, partial curve, poor fit]
CCOc1ccc(/C=C/C(=O)c2cc(Br)ccc(=O)c2O)cc1	inconclusive: -1.44% [inhibitor]	–
O=C(N/N=C/c1ccccn1)c1cc(-c2ccccc2Cl)n[nH]1	inactive: 103%	–
CCN(Cc1ccccc1)S(=O)(=O)c1c(C(=O)N2CCCC2)c(C)n(C)c1C	inactive: -2.29%	–
O=C1CC(=O)N(Cc2ccco2)C(=O)N1	–	inconclusive [inhibitor, partial curve]
COc1ccc(NCc2nnc(SCc3ccccc3)n2-c2ccc(OC)cc2)cc1	–	inconclusive [inhibitor, single point]
COc1c(OC(C)=O)ccc(/C=C/c2ccc3cccc(OC)c3n2)c1[N+](=O)[O-]	–	inconclusive [inhibitor, partial curve]
COc1cccc(C(CNc2ccc(S(=O)(=O)N3CCN(C)CC3)cc2[N+](=O)[O-])N(C)C)c1 (stereo unspecified)	–	inconclusive [inhibitor, single point]
FC(F)(F)c1cnc(Nc2ccc(N3CCOCC3)cc2)c(Cl)c1	–	inconclusive [inhibitor, single point]
CC(NCC(=O)Nc1ccccc1C(=O)NC1CC1)c1ccc(S(N)(=O)=O)cc1 (stereo unspecified)	–	inconclusive [inhibitor, single point]
COc1ccc(CN(C(=O)/C=C/c2ccccc2Cl)C2CCS(=O)(=O)C2)cc1 (stereo unspecified)	inactive: 4.67%	–
CN(c1ccccc1)c1ccc(/C=C(\CCC(=O)O)c2nc3ccccc3s2)cc1[N+](=O)[O-]	–	inconclusive [inhibitor, partial curve]
O=C(CN(Cc1ccc(F)cc1)C(=O)c1ccco1)NCc1ccc(F)cc1	–	inconclusive [inhibitor, partial curve]
COc1ccc(C)cc1S(=O)(=O)N(C)CC(=O)NC1CC1	–	inconclusive [inhibitor, partial curve]
Cc1ccc(OCc2nc(C#N)c(NCc3ccc4c(c3)OCO4)o2)cc1	–	inconclusive [inhibitor, full curve]
CCOC(=O)CSc1cc(=O)n(CC)c2ccccc12	inactive: 4.53%	–
CCn1c(C)c(C)c2cc(C(=O)N3CCN(c4cccc(C)c4C)CC3)ccc21	–	inconclusive [inhibitor, single point]
CN(C)c1ccc(/C=C/C(=O)c2cc(Cl)ccc2O)cc1	–	active: 14.1 µM
COc1cccc(-c2nn(C)c3sc(C(=O)N4CCN(c5ccccc5)CC4)cc23)c1	–	inconclusive [inhibitor, partial curve]
NNC(=O)c1cc(C2CC2)nc2ccc(Br)cc12	inactive: 34.2%	–
Clc1cccc(Cl)c1CNc1ccc(N2CCCC2)cc1	–	inconclusive [inhibitor, partial curve]
O=CN1CCCN(Cc2nc(-c3cccc(Cl)c3)no2)CC1	inactive: -10.9%	–
